Measured values reported in ChEMBL document CHEMBL1125856, “The Interaction of Anhydroalditols with Sweet-Almond -glucosidase and Escherichia coli -galactosidase: implications for the design of potent glycosidase inhibitors” (Bioorg Med Chem Lett, 1991).

Columns and labels:
Conditions in all cases: Escherichia coli
[1] = test system: C[C@H]1OC[C@H](O)[C@@H](O)[C@H]1O; assay: (§1) Compound was evaluated for its Michaelis-Menten constant against E-coli Beta-galactosidase
[2] = test system: OC[C@H]1OC[C@@H](O)[C@H]1O; assay: as §1
[3] = test system: O[C@H]1[C@H](O)COC[C@@H]1O; assay: as §1
[4] = test system: OC[C@H]1OC[C@H](O)[C@@H](O)[C@H]1O; assay: as §1
O[C@@H]1COC[C@H]1O = assay: as §1
[5] = test system: OC[C@H]1OC[C@@H](O)[C@@H]1O; assay: as §1
[6] = test system: OC[C@H]1OC[C@H](O)[C@@H](O)[C@@H]1O; assay: as §1

Beta-galactosidase (Escherichia coli) (no sequence given)
Km [1]: 35.9 mM
Km [2]: 0.048 mM
Km [3]: 15.2 mM
Km [4]: 0.048 mM
Km (O[C@@H]1COC[C@H]1O): 15.2 mM
Km [5]: 32.6 mM
Km [6]: 32.6 mM
